# In the supplement of paper PMC8728848:
# The other results are listed elsewhere or left out.
# B1: OGAN (protein)
# chain: MVQKESQATLEERESELSSNPAASAGASLEPPAAPAPGEDNPAGAGGAAVAGAAGGARRFLCGVVEGFYGRPWVMEQRKELFRRLQKWELNTYLYAPKDDYKHRMFWREMYSVEEAEQLMTLISAAREYEIEFIYAISPGLDITFSNPKEVSTLKRKLDQVSQFGCRSFALLFNDIDHNMCAADKEVFSSFAHAQVSITNEIYQYLGEPETFLFCPTEYCGTFCYPNVSQSPYLRTVGEKLLPGIEVLWTGPKVVSKEIPVESIEEVSKIIKRAPVIWDNIHANDYDQKRLFLGPYKGRSTELIPRLKGVLTNPNCEFEANYVAIHTLATWYKSNMNGVRKDVVMTDSEDSTVSIQIKLENEGSDEDIETDVLYSPQMALKLALTEWLQEFGVPHQY
# Assays:
# Assay in all cases: glycan array binding signal (z-score within array); higher = stronger binding
# Details in all cases: glycan notation: IUPAC condensed, linker removed
# [1] = target: Neu5Ac(a2-6)Gal(b1-4)GlcNAc(b1-2)Man(a1-3)[Man(a1-6)]Man(b1-4)GlcNAc(b1-4)GlcNAc
# Procedure, shortened: (§1)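 Glycan array data came from 3228 arrays in the Consortium for Functional Glycomics database, and only arrays with an available protein sequence were kept. Glycan names were put into IUPAC-condensed notation, and columns mapping to the same glycan were averaged. The binding signal is a within-array Z-score, averaged across arrays of one protein sequence run at different concentrations or buffers and across linkers. A negative Z-score can be read as non-binding.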
# [2] = target: Neu5Ac(a2-6)Gal(b1-4)GlcNAc(b1-2)Man(a1-3)[Neu5Ac(a2-3)Gal(b1-4)GlcNAc(b1-2)Man(a1-6)]Man(b1-4)GlcNAc(b1-4)GlcNAc
# Procedure, shortened: as §1
# [3] = target: Neu5Ac(a2-6)Gal(b1-4)GlcNAc(b1-2)Man(a1-3)[Neu5Ac(a2-6)Gal(b1-4)GlcNAc(b1-2)Man(a1-6)]Man(b1-4)GlcNAc(b1-4)GlcNAc
# Procedure, shortened: as §1
# [4] = target: Neu5Ac(a2-6)Gal(b1-4)GlcNAc(b1-2)Man(a1-3)[Neu5Ac(a2-6)Gal(b1-4)GlcNAc(b1-2)Man(a1-6)]Man(b1-4)GlcNAc(b1-4)[Fuc(a1-6)]GlcNAc
# Procedure, shortened: as §1
# [5] = target: Neu5Ac(a2-6)Gal(b1-4)GlcNAc(b1-2)Man(a1-6)Man(b1-4)GlcNAc(b1-4)GlcNAc
# Procedure, shortened: as §1
# [6] = target: Neu5Ac(a2-6)Gal(b1-4)GlcNAc(b1-2)Man(a1-6)[Gal(b1-4)GlcNAc(b1-2)Man(a1-3)]Man(b1-4)GlcNAc(b1-4)GlcNAc
# Procedure, shortened: as §1
# [7] = target: Neu5Ac(a2-6)Gal(b1-4)GlcNAc(b1-2)Man(a1-6)[GlcNAc(b1-2)Man(a1-3)]Man(b1-4)GlcNAc(b1-4)GlcNAc
# Procedure, shortened: as §1
# [8] = target: Neu5Ac(a2-6)Gal(b1-4)GlcNAc(b1-2)Man(a1-6)[Man(a1-3)]Man(b1-4)GlcNAc(b1-4)GlcNAc
# Procedure, shortened: as §1
# [9] = target: Neu5Ac(a2-6)Gal(b1-4)GlcNAc(b1-2)[Neu5Ac(a2-6)Gal(b1-4)GlcNAc(b1-4)]Man(a1-3)[GlcNAc(b1-4)][Neu5Ac(a2-6)Gal(b1-4)GlcNAc(b1-2)[Neu5Ac(a2-6)Gal(b1-4)GlcNAc(b1-6)]Man(a1-6)]Man(b1-4)GlcNAc(b1-4)GlcNAc
# Procedure, shortened: as §1
# [10] = target: Neu5Ac(a2-6)Gal(b1-4)GlcNAc(b1-2)[Neu5Ac(a2-6)Gal(b1-4)GlcNAc(b1-4)]Man(a1-3)[GlcNAc(b1-4)][Neu5Ac(a2-6)Gal(b1-4)GlcNAc(b1-4)Man(a1-6)]Man(b1-4)GlcNAc(b1-4)GlcNAc
# Procedure, shortened: as §1
# [11] = target: Neu5Ac(a2-6)Gal(b1-4)GlcNAc(b1-2)[Neu5Ac(a2-6)Gal(b1-4)GlcNAc(b1-6)]Man(a1-6)[Neu5Ac(a2-6)Gal(b1-4)GlcNAc(b1-2)Man(a1-3)][GlcNAc(b1-4)]Man(b1-4)GlcNAc(b1-4)GlcNAc
# Procedure, shortened: as §1
# [12] = target: Neu5Ac(a2-6)Gal(b1-4)GlcNAc(b1-3)Gal(b1-3)GlcNAc
# Procedure, shortened: as §1
# [13] = target: Neu5Ac(a2-6)Gal(b1-4)GlcNAc(b1-3)Gal(b1-4)GlcNAc
# Procedure, shortened: as §1
# [14] = target: Neu5Ac(a2-6)Gal(b1-4)GlcNAc(b1-3)Gal(b1-4)GlcNAc(b1-2)Man(a1-3)[Neu5Ac(a2-6)Gal(b1-4)GlcNAc(b1-3)Gal(b1-4)GlcNAc(b1-2)Man(a1-6)]GalNAc
# Procedure, shortened: as §1
# [15] = target: Neu5Ac(a2-6)Gal(b1-4)GlcNAc(b1-3)Gal(b1-4)GlcNAc(b1-3)Gal(b1-4)GlcNAc
# Procedure, shortened: as §1
# [16] = target: Neu5Ac(a2-6)Gal(b1-4)GlcNAc(b1-3)Gal(b1-4)GlcNAc(b1-3)Gal(b1-4)GlcNAc(b1-2)Man(a1-3)[Neu5Ac(a2-6)Gal(b1-4)GlcNAc(b1-3)Gal(b1-4)GlcNAc(b1-3)Gal(b1-4)GlcNAc(b1-2)Man(a1-6)]GalNAc
# Procedure, shortened: as §1
# [17] = target: Neu5Ac(a2-6)Gal(b1-4)GlcNAc(b1-3)Gal(b1-4)GlcNAc(b1-3)GalNAc
# Procedure, shortened: as §1
# [18] = target: Neu5Ac(a2-6)Gal(b1-4)GlcNAc(b1-3)Gal(b1-4)GlcNAc(b1-3)[Neu5Ac(a2-6)Gal(b1-4)GlcNAc(b1-3)Gal(b1-4)GlcNAc(b1-6)]GalNAc
# Procedure, shortened: as §1
# [19] = target: Neu5Ac(a2-6)Gal(b1-4)GlcNAc(b1-3)Gal(b1-4)GlcNAc(b1-6)[Gal(b1-3)]GalNAc
# Procedure, shortened: as §1
# [20] = target: Neu5Ac(a2-6)Gal(b1-4)GlcNAc(b1-3)Gal(b1-4)[Fuc(a1-3)]GlcNAc(b1-3)Gal(b1-4)[Fuc(a1-3)]GlcNAc
# Procedure, shortened: as §1
# [21] = target: Neu5Ac(a2-6)Gal(b1-4)GlcNAc(b1-3)GalNAc
# Procedure, shortened: as §1
# [22] = target: Neu5Ac(a2-6)Gal(b1-4)GlcNAc(b1-3)[Neu5Ac(a2-6)Gal(b1-4)GlcNAc(b1-6)]GalNAc
# Procedure, shortened: as §1
# [23] = target: Neu5Ac(a2-6)Gal(b1-4)GlcNAc(b1-6)GalNAc
# Procedure, shortened: as §1
# [24] = target: Neu5Ac(a2-6)Gal(b1-4)GlcNAc(b1-6)[Gal(b1-3)GlcNAc(b1-3)]Gal(b1-4)Glc
# Procedure, shortened: as §1
# [25] = target: Neu5Ac(a2-6)Gal(b1-4)GlcNAc(b1-6)[Gal(b1-3)]GalNAc
# Procedure, shortened: as §1
# [26] = target: Neu5Ac(a2-6)Gal(b1-4)GlcNAc6S
# Procedure, shortened: as §1
# Neu5Ac(a2-6)GalNAc = target: Neu5Ac(a2-6)GalNAc
# Procedure, shortened: as §1
# [27] = target: Neu5Ac(a2-6)GalNAc(b1-4)GlcNAc
# Procedure, shortened: as §1
# [28] = target: Neu5Ac(a2-6)GalNAc(b1-4)GlcNAc6S
# Procedure, shortened: as §1
# [29] = target: Neu5Ac(a2-6)GlcNAc(b1-4)GlcNAc
# Procedure, shortened: as §1
# [30] = target: Neu5Ac(a2-6)GlcNAc(b1-4)GlcNAc(b1-4)GlcNAc
# Procedure, shortened: as §1
binder,measurement,setting,value
B1,glycan array binding signal (z-score),[1],-0.021
same,glycan array binding signal (z-score),[2],-0.09
same,glycan array binding signal (z-score),[3],-0.057
same,glycan array binding signal (z-score),[4],-0.039
same,glycan array binding signal (z-score),[5],-0.076
same,glycan array binding signal (z-score),[6],-0.074
same,glycan array binding signal (z-score),[7],-0.124
same,glycan array binding signal (z-score),[8],-0.037
same,glycan array binding signal (z-score),[9],-0.079
same,glycan array binding signal (z-score),[10],-0.052
same,glycan array binding signal (z-score),[11],0.005
same,glycan array binding signal (z-score),[12],-0.1
same,glycan array binding signal (z-score),[13],-0.064
same,glycan array binding signal (z-score),[14],-0.046
same,glycan array binding signal (z-score),[15],-0.045
same,glycan array binding signal (z-score),[16],0.039
same,glycan array binding signal (z-score),[17],-0.057
same,glycan array binding signal (z-score),[18],-0.073
same,glycan array binding signal (z-score),[19],-0.038
same,glycan array binding signal (z-score),[20],-0.06
same,glycan array binding signal (z-score),[21],-0.063
same,glycan array binding signal (z-score),[22],-0.077
same,glycan array binding signal (z-score),[23],-0.036
same,glycan array binding signal (z-score),[24],-0.051
same,glycan array binding signal (z-score),[25],-0.091
same,glycan array binding signal (z-score),[26],-0.052
same,glycan array binding signal (z-score),Neu5Ac(a2-6)GalNAc,-0.071
same,glycan array binding signal (z-score),[27],-0.08
same,glycan array binding signal (z-score),[28],-0.055
same,glycan array binding signal (z-score),[29],-0.066
same,glycan array binding signal (z-score),[30],-0.055
